Source: PubChem BioAssay AID1346428 (National Center for Advancing Translational Sciences (NCATS), 2018)
Where “and” joins values, the source holds several entries; their conditions need not be identical. Equal values may be shown once. In all, about 48,000 compounds went through this assay and about 1,200 (2.5%) were called active. Inconclusive results (about 2%) are left out.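 Rule for the calls: active = activation of at least 60% and not above a set upper limit (about 1 call in 100 departs from these limits); inconclusive = activation of 40% to 60%, or above that upper limit; inactive = activation under 40%.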 The list shows a part of the results.

The molecules below were run against Probable G-protein coupled receptor 32 (Homo sapiens) (UniProt O75388) (assay: qHTS for Agonists of Human Resolvin D1 Receptor DRV1). Conditions: CHO-K1 GPR32 beta-arrestin PathHunter luminescence, 90 min; at 76.9 µM; stronger effect = higher value; zero percent set by DMSO-only wells.
Method in brief: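 Cells are plated overnight, treated with compounds in DMSO for 90 minutes at 37 °C, and developed with PathHunter detection reagent for 1 hour before luminescence is read; signal reflects beta-arrestin binding to GPR32 in engineered CHO-K1 cells.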
Note: 0% is about no effect.

Chain of UniProt O75388 (O75388 whole entry, looked up): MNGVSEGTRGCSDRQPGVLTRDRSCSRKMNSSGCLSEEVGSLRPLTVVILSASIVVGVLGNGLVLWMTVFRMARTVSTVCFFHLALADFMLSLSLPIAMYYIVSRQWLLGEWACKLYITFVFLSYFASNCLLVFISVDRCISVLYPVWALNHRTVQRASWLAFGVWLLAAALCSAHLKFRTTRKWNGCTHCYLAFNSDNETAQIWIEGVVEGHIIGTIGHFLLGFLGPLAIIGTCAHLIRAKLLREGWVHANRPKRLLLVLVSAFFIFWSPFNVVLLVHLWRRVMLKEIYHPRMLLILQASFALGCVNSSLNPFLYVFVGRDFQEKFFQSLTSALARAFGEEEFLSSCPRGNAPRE

Structure (SMILES) | activation
CCOC(=O)c1c(NC(=O)CSc2cn(CCNC(=O)c3ccc(OC)c(OC)c3)c3ccccc23)sc2c1CCCC2 | inactive: 3.13%
Cc1ccc(CNC(=O)CCCn2nc(C)c3c(C)n(-c4ccccc4)nc3c2=O)cc1 | inactive: -7.64%
CCc1cccc(NS(=O)(=O)c2ccc3c(c2)n(C)c(=O)c(=O)n3C)c1 | inactive: -5.33%
CCOCCn1ccc2c(OCC(=O)NCc3ccc(C)cc3)cccc2c1=O | inactive: -7.09%
Cc1ccccc1NC(=O)CSc1nnc(COc2ccc(Cl)cc2)o1 | inactive: 1.5%
COc1ccc(-c2cn3nc(N4CCCC(C(=O)Nc5cccc(Cl)c5C)C4)sc3n2)cc1 (stereo not drawn) | inactive: -10.3%
CCCSc1ncc(Cl)c(C(=O)NCc2ccc(OC)cc2)n1 | inactive: -16.8%
CN(C)CCNC(=O)c1ccc2c(c1)N(Cc1ccccc1)C(=O)c1ccccc1S2(=O)=O | inactive: -23%
COCCCNC(=O)N1[C@H](c2cccs2)[C@@H](C)C(=O)[C@@H](C)[C@@H]1c1cccs1 | inactive: -20.1%
O=C1c2[nH]nc(-c3ccccc3O)c2C(c2cccc(O)c2)N1Cc1ccncc1 (stereo not drawn) | inactive: -14.6%
O=C(Cn1cc(C(=O)c2ccncc2)c(=O)c2cc(F)ccc21)Nc1ccc(Cl)cc1 | inactive: -29.1%
Cc1ccc(O)c(NC(=O)c2noc3c2CCCC3)c1 | inactive: 27%
COc1ccccc1CNC(=O)CCn1c(=O)c2ccccc2n(CC(=O)Nc2ccc(Br)cc2F)c1=O | inactive: -8.63%
COc1cccc(-n2cc(C(=O)OCc3ccc(F)c(F)c3)c3ccccc3c2=O)c1 | inactive: -9.3%
Cc1ccc2c(c1)N(S(=O)(=O)c1cc(-c3onc(C)c3C)ccc1C)CCO2 | inactive: 12.7%
O=C(CN1C(=O)COc2ccc(S(=O)(=O)N3CCCC3)cc21)N1CCN(c2ccc(Cl)cc2)CC1 | inactive: -6.11%
CCCCNc1nc2c(c(=O)n(C)c(=O)n2C)n1CC(O)COc1ccccc1C (stereo not drawn) | active: 66.6%
Cc1ccc2nc(-c3cccc(NC(=O)c4ccc(Br)o4)c3)oc2c1 | inactive: 16.3%
CCOc1ccccc1-n1nnc(-c2nc(-c3ccccc3C)no2)c1C | inactive: -1.29%
COc1ccc(C(=O)Nc2nnc(S(=O)(=O)N3CCCc4ccccc43)s2)cc1 | inactive: 26.3%
Cc1ccc(C(=O)Nc2nc3n(n2)C(c2ccc(F)cc2)C=C(c2ccccc2)N3)cc1 (stereo not drawn) | inactive: 6.3%
C=C1C(=O)O[C@@H]2[C@H]3O[C@]3(C)CCC=C(C)CC[C@@H]12 | inactive: -19%
Cc1nn(C)c2c1c(C(F)(F)F)cc(=O)n2CC(=O)N1CCCCC1 | inactive: 25.6%
CCOC(=O)c1c(NC(=O)c2ccc(Br)cc2)sc2c1CCCC2 | inactive: -3.91%
Cc1ccc(Cl)cc1NC(=O)N1CCC(CN2CCCCCC2)CC1 | inactive: -10.1%
Cc1ccc(NC(=O)CSc2ccc3nnc(CCNS(=O)(=O)c4ccccc4)n3n2)cc1Cl | inactive: 1.6%
Cc1ccccc1NC(=O)c1cccc2c(=O)c3c([nH]c12)CCCC3 | inactive: 31.1%

Structure (SMILES) | activation
Cc1ccc2cc(CN(C)C(=O)c3cccc(Cl)c3)c(=O)[nH]c2c1 | inactive: -5.86%
Cc1ccc([N+](=O)[O-])cc1S(=O)(=O)N1CCn2cccc2C1c1ccccc1 (stereo not drawn) | inactive: -5.33%
CCOc1ccc(-n2nc(CO)c(C(=O)NCc3cccs3)n2)cc1 | inactive: -3.31%
CCn1cc(C(=O)N2CCN(c3cc(C)ccc3C)CC2)c(=O)c2cc(S(=O)(=O)N3CCCCC3)ccc21 | inactive: -8.07%
Cc1nc(SC(C)C(=O)Nc2ccccc2Cl)cc(-c2ccccc2)n1 (stereo not drawn) | inactive: -20.2%
COc1ccc(N2CCN(Cc3cccn3-c3nnc(N4CCN(C5CCCCC5)CC4)s3)CC2)cc1 | inactive: 4.45%
CC(Oc1ccc(Br)cc1)C(=O)Nc1ncn[nH]1 (stereo not drawn) | inactive: -7.11%
Cc1ccc(C)c(NC(=O)C2CCCN(S(=O)(=O)c3cn(C)cn3)C2)c1 (stereo not drawn) | inactive: -2.41%
CC(N)C(=O)OC(C)(C)Cc1ccc(Cl)cc1 (stereo not drawn) | inactive: -46% and inactive: -14.6%
Cc1ccc2nc(-c3ccc(Cl)c(NC(=O)COc4ccc(C(C)C)cc4)c3)oc2c1 | inactive: 3.19%
COc1ccc(NC(=O)CCc2nnc3n(Cc4ccccc4Cl)c(=O)c4ccccc4n23)cc1 | inactive: 2.3%
Cc1ccc(N2C(=O)N(Cc3cc(=O)n4ccccc4n3)c3ccccc3S2(=O)=O)cc1Cl | inactive: -9.7%
CCOc1ccccc1CNC(=O)Cn1cc2c(n1)-c1c(oc(C(=O)N3CCCC3)c1C)CC2 | inactive: -29.8%
CCNc1cc(N2CCN(C3CCCCC3)CC2)c2noc3c2c1C(=O)c1ccccc1-3 | inactive: 10.3%
Cc1ccc(S(=O)(=O)N2CCN(Cc3nc4ccc(C)cc4o3)CC2)cc1 | inactive: -2.24%
O=C(Cn1cc(S(=O)(=O)c2ccccc2)c(=O)c2cc3c(cc21)OCO3)Nc1ccc(Cl)cc1 | inactive: -16.2%
O=C(CS(=O)(=O)c1cccc2nsnc12)N1CCN(c2cccc(C(F)(F)F)c2)CC1 | active: 88.5%
COc1ccc(Br)cc1CNC(=O)CCSCc1ccc(C)cc1 | inactive: -29.2%
CSc1ccc(CCNC(=O)c2ccc(-c3nc(COc4ccc(C)cc4)c(C)o3)cc2)cc1 | inactive: 22.6%
CCOC(=O)CSc1nc2ccccc2c(=O)n1-c1cccc(C)c1 | inactive: -18.3%
COc1ccc(C(=O)Nc2ccccc2SCc2cc(=O)c3cccc(C)c3[nH]2)cc1 | inactive: 8.23%
COC(=O)c1ccccc1NC(=O)C1=C(C)C(=O)OC12CCCCCC2 | inactive: -31.9%
O=C(O)Cc1ccc(NC2(c3ccccc3)C(=O)c3ccccc3C2=O)cc1 | inactive: -2.61%
COc1ccc(S(=O)(=O)NCCS(=O)(=O)N2CCN(c3ccccc3)CC2)cc1C | inactive: 11.6%
O=C(O)Cc1sc(Nc2ccccc2)nc1-c1ccccc1 | inactive: 7.25%
CCOC(=O)c1ccc(-n2c(-c3ccc(C)cc3)c(C)n3c4c(=O)n(C)c(=O)n(C)c4nc23)cc1 | inactive: 5.25%
